Measurements reported in paper PMC12040169 (PLOS Biology, 2025).
The other results are listed elsewhere or left out.

Tested on: T1, C. trachomatis L2/434/Bu expressing GFP (CTL2-GFP)
T1 construct: L2/434/Bu GFP intracellular growth in HeLa cells
Parameters: species or system HeLa; C. trachomatis total inclusion area by high-content imaging, normalised to DMSO
Conditions: total inclusion area; 28.5 h, 10 µM; inhibitor
Summary of the method: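 Post-fluorescence-read fixation, DNA staining with Hoechst and high-content imaging; GFP inclusion area and number per well, and nuclei counts, used as proxies for bacterial growth and host viability.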

| SMILES | % of control remaining |
| --- | --- |
| COCC(=O)NC[C@H]1C[C@@H]2CCN1C[C@@H]2c1cc(-c2ccccc2)nc(C)n1 [CBK289123] | 83.3628 |
| Fc1ccc(Sc2nc3ccccc3nc2N2CCCC2)cc1 [CBK089543] | 96.4158 |
| Cc1cc(C)nc(Nc2n[nH]c(-c3ccc(N)cc3)n2)n1 [CBK267131] | 112.191 |
| CN(C)CCOC(=O)c1ccc2[nH]c3c(c2c1)CSCC3 [CBK009731C] | 101.99 |
| CCNS(=O)(=O)c1ccc(CCC(=O)Nc2ccc3c(c2)OCO3)cc1 [CBK268367] | 125.165 |
| Cc1cc(CNC(=O)c2ccc3c(c2)OCO3)c2ccccc2n1 [CBK270014] | 51.1985 |
| COc1ccc(C2(C(=O)NCc3ccc(-c4ccc(C(N)=O)c(C)n4)cc3)CCCC2)cc1 [CBK285647] | 50.7524 |
| O=C(c1cc(-c2ccncc2)nc2ccc(Cl)cc12)N1CCN(c2ccc([N+](=O)[O-])cc2)CC1 [CBK267748] | 106.052 |
| CCc1cnccc1C(=O)N1CCC(NC(=O)c2cnn(C)c2)CC1 [CBK305388] | 90.5645 |
| CC(C)CN(CCc1ccc(O)cc1)CC(=O)NC1(c2ccccc2)CCC1 [CBK067781T] | 74.3886 |
| CNC(=O)C1(Cc2ccc(-c3ccccc3)cc2)CCN(C(=O)Cc2ccc(C)cc2)CC1 [CBK285769] | 112.558 |
| CC(=O)N[C@H]1CC[C@]2(C)CCC([C@H](C)C(=O)NCCN3CCCC3)[C@H](O)[C@H]2[C@@H]1C (stereo partly drawn) [CBK289440] | 115.325 |
| O=C(COc1ccccc1)NC(/C=C/c1ccccc1)c1cc(Cl)c2cccnc2c1O (stereo not drawn) [CBK263994] | 57.8956 |
| Cc1nnc(SCC(=O)NCCc2ccccc2)nc1O [CBK268045] | 108.958 |
| COc1cccc(-c2nnc(SCC(=O)Nc3cccc([N+](=O)[O-])c3)n2C)c1 [CBK266074] | 74.2908 |
| Cc1oc(-c2ccccc2)nc1C(=O)N1CCCN(C)CC1 [CBK073940C] | 74.1502 |
| Cc1cc(NC(=O)CN(C)C(=O)Cc2cccc(C(F)(F)F)c2)no1 [CBK305564] | 109.377 |
| C=CCNC(=O)C1(Cc2ccccc2-c2ccncc2)CCOCC1 [CBK284784] | 121.002 |
| c1ccc2c(c1)OCC(c1nn3c(Cn4cnc5ccccc54)nnc3s1)O2 (stereo not drawn) [CBK268436] | 91.0544 |
| Cc1ccc(C(=O)COc2ccc(/C=C(\C#N)c3nc(-c4ccc5c(c4)OCO5)cs3)cc2)cc1 [CBK266778] | 80.0402 |
| Cc1ccc(S(=O)(=O)N/N=C(/c2ccccc2)c2ccc(OCC(C)C)cc2)cc1 [CBK261056] | 86.2396 |
| CC(=O)N1c2ccc(-c3cn4cc(C)ccc4n3)cc2CC1C (stereo not drawn) [CBK285195] | 91.3826 |
| CC(=O)N1CCc2sccc2C1c1ccccc1NC(=O)c1ccco1 (stereo not drawn) [CBK286436] | 103.022 |
| CC1CCCCN1Cc1nc2c(c(=O)n(C)c(=O)n2C)n1CCc1ccccc1 (stereo not drawn) [CBK269189] | 114.505 |
| Cc1cccc(C(=O)NC(CC(C)C)c2nnc3n2CCNCC3)n1 (stereo not drawn) [CBK306866] | 90.4648 |
| Cc1nnc(SCC(=O)N/N=C/c2coc3ccccc3c2=O)n1-c1ccccc1 [CBK262842] | 92.5113 |

| SMILES | % of control remaining |
| --- | --- |
| COCC(=O)N[C@H]1CCN2C(=O)c3cc(-c4cccc(C)c4C)ccc3NC(=O)[C@@H]2C1 [CBK289562] | 106.187 |
| Cc1cnn(C)c1CN1CCC(C(N)=O)(N2CCCCC2)CC1 [CBK304400] | 49.9439 |
| COc1ccc(Cl)cc1NC(=O)CN(C1CCCCC1)S(C)(=O)=O [CBK266720] | 117.767 |
| Cn1cc(C(=O)N2CCc3ccccc32)c2ccccc21 [CBK200407] | 100.937 |
| CN1CCN(c2c(C(=O)O)cc([N+](=O)[O-])cc2[N+](=O)[O-])CC1 [CBK261519] | 105.095 |
| Cc1cc(I)cnc1NC(=O)CSc1ccc(Cl)cc1 [CBK266438] | 98.4573 |
| O=C(Nc1ccc(/C=C/c2ccccc2)cc1)c1ccc(COc2ccccc2)o1 [CBK267829] | 91.364 |
| CCN(CC)C(=O)CN1C(=O)C2(Nc3ccccc3C(=O)N2c2ccc(C)cc2)c2ccccc21 (stereo not drawn) [CBK093478] | 72.4857 |
| Cc1oc(NC(=O)CN2CCN(c3ccccn3)CC2)c(C#N)c1C [CBK236456] | 37.7935 |
| CNCC1CCCN(Cc2cn(-c3ccc(Br)cc3)nc2C)C1 (stereo not drawn) [CBK304301C] | 36.3736 |
| O=C(Nc1cc2ccccc2c(N2CCNCC2)n1)c1cnccn1 [CBK036346T] | 85.8522 |
| CC(c1nc2ccccc2[nH]1)N1CCC2(CC1)NCCc1c2[nH]c2ccccc12 (stereo not drawn) [CBK040061] | 56.2668 |
| Cc1ccc(S(=O)(=O)N=C2NCN(CCOC(=O)c3ccc([N+](=O)[O-])cc3)CN2)cc1 [CBK265235] | 109.702 |
| CSCCC(C(=O)O)N1C(=O)C(=Cc2ccc(-c3cc(Cl)cc(Cl)c3)o2)SC1=S (stereo not drawn) [CBK296984] | 89.4262 |
| O=c1cc(-c2ccc(Br)cc2)nc2[nH]ccn12 [CBK016446] | 91.8625 |
| O=S(=O)(Nc1ccc(N2CCCCC2)cc1)c1cccc2cccnc12 [CBK263077] | 96.435 |
| Cn1c(=O)n(C)c2cc(CN3CCN(C4CCCC4)C(=O)C3)ccc21 [CBK281909] | 115.911 |
| CN(C(=O)OC(C)(C)C)C1CN(C(c2ccccc2)c2ccccc2)C1 [CBK008111] | 92.9366 |
| O=c1ccc2ccc(-c3cccc(OCc4ccccc4)c3)nc2[nH]1 [CBK073722] | 85.822 |
| COC(=O)C1C2CCN(CC2)C1SCc1cccc(C(F)(F)F)c1 (stereo not drawn) [CBK010829C] | 95.1898 |
| O=C(O)CC1Cn2ncc(-c3ccccc3)c2NC1=O (stereo not drawn) [CBK288187] | 99.9458 |
| CCCC(=O)c1ccc2c(c1)CC(N(CCC)CCC)C2 (stereo not drawn) [CBK023971C] | 109.015 |
| Cc1cc(C2CCCCCN2Cc2c(C)nn(C)c2C)on1 (stereo not drawn) [CBK282967] | 100.679 |
| COc1cc(NS(=O)(=O)c2ccc(N/C=C3/CCc4ccccc4C3=O)cc2)nc(OC)n1 [CBK263376] | 21.7838 |
| CCCc1cc(O)nc(SCC(=O)Nc2cc3c(cc2C(C)=O)OCO3)n1 [CBK266144] | 69.9444 |
| Cc1nc(CNC(=O)c2nn(-c3cccc(C(C)C)c3)cc2O)no1 [CBK305269] | 71.0895 |

| SMILES | % of control remaining |
| --- | --- |
| COc1ccc(C2=NN(c3ccc([N+](=O)[O-])cc3)C(=O)/C2=C\c2cccc(OC)c2OC)cc1 [CBK264475] | 114.948 |
| O=C(Nc1ccccc1C(=O)NCCN1CCOCC1)c1cccs1 [CBK270077] | 97.8847 |
| NS(=O)(=O)c1ccc(CCNC(=O)c2ccc(Cl)c([N+](=O)[O-])c2)cc1 [CBK264395] | 121.959 |
| CCN(CCc1nc2cc(OC)ccc2[nH]1)C(=O)c1ccc(=O)n(C)c1 [CBK307312] | 63.9654 |
| CCCC(=O)N1CCN(Cc2ccc3c(c2)OCO3)CC1 [CBK074367] | 106.866 |
| COc1ccc(OC)c(NC(=O)c2cnc3scc(C)n3c2=O)c1 [CBK287462] | 102.719 |
| COCC(=O)Nc1ccc(Cl)c(NC(=O)NCCN2CCCC2=O)c1 [CBK306663] | 79.6462 |
| COc1cc2c(cc1OC)CN(CCO)CC2 [CBK138322] | 97.7963 |
| c1ccc(CCNc2nccnc2-c2ccncc2)nc1 [CBK037378] | 85.889 |
| O=C(CSc1nc2ccccc2s1)OCc1ccc([N+](=O)[O-])cc1 [CBK262547] | 101.264 |
| COC(C(=O)NCc1sc(-c2ccccc2)nc1C)c1ccccc1 (stereo not drawn) [CBK092362] | 105.62 |
| COc1ccc(Cc2nc(C3CCC3)n(CC3COCCO3)n2)cc1 (stereo not drawn) [CBK307378] | 72.4623 |
| Cc1c(C(=O)N2CCC(c3c(C(=O)NC(C)C)sc4ccccc34)C2)[nH]c2ccccc12 (stereo not drawn) [CBK285872] | 92.6114 |
| c1cncc(-c2cn3ccnc3c(NCC3CC3)n2)c1 [CBK036609] | 79.972 |
| CN(C)c1ccc(-c2nccnc2NS(=O)(=O)c2cccs2)cc1 [CBK050804] | 99.3788 |
| NC(=O)c1c(NC(=O)CSC2=NCCS2)sc2c1CCCC2 [CBK269989] | 95.0732 |
| Cc1nnc(CN(CC2CCCO2)C2CCC(C)CC2)o1 (stereo not drawn) [CBK304824] | 87.1705 |
| Nc1ncc(-c2cc(C(F)(F)F)cc(C(F)(F)F)c2)nc1N1CCN(CCO)CC1 [CBK063426] | 61.2308 |
| Cc1cc(Cl)ccc1CNC(=O)C1=CC(=O)CC(C)(C)O1 [CBK153282] | 90.6673 |
| Cc1ccc(CNc2c(-c3ccco3)nc3cnccn23)cc1 [CBK283693] | 118.856 |
| N#C/N=C(/Nc1cccnc1)Oc1ccccc1 [CBK012612] | 53.7045 |
| COc1cc2c(cc1OC)CN(CCN1CCCCC1)CC2 [CBK126439] | 117.151 |
| O=C(c1ccccc1)N1CCCC(c2nnc(-c3cccs3)o2)C1 (stereo not drawn) [CBK283059] | 60.4579 |
| Nn1cnn2c(SCCSC3CCCCC3)nnc12 [CBK263192] | 108.524 |
| Cc1ccc(S(=O)(=O)N(CC(=O)NCc2ccco2)c2cc(C)cc(C)c2)cc1 [CBK263982] | 102.227 |
| CCOc1ccc(NC(=O)N(Cc2cnn(C)c2)CC(C)C)cc1C#N [CBK307636] | 19.2014 |
